From the supplement of paper PMC10126150
Sequences with one replicate were seen in a single cluster, so their values are uncertain.
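Also: ATP exposure 15 min at 22 °C before imaging.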

Each sequence was assayed on ATP (assay: switch fluorescence ratio, 500 uM ATP over buffer (Cy3 cluster intensity, sum of 5 cycles each) (fold (ratio)); higher = stronger signal-on switching upon ATP binding; sequences stand for … in TCGTCGGCAGCGTCAGATGTGTATAAGAGACAGTTTTTTTTTTTTTTTTTTTTTTTTT…TC). Details: aptamer strand: ATP DNA aptamer (quencher-CACCTGGGGGAGTATTGCGGAGGAAGG + anchor), 100 nM annealed; ATP concentration: 500 uM; one replicate.
Outline: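 For every switch-domain sequence, the fluorescence ratio is the mean of per-cluster values, each being summed target-cycle Cy3 intensity over summed buffer-cycle Cy3 intensity. Clusters outside 100-1000 RFU were excluded. On a modified Illumina MiSeq flow-cell, the Cy3-labelled switching-strand clusters were annealed to 100 nM quencher-labelled ATP aptamer, imaged in selection buffer and then after 15 min with 500 uM ATP at 22 °C. Five such cycles were run, with NaOH stripping and re-annealing between them.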
TGTTTACAAA was tested, and the switch fluorescence ratio was 1.01. TGTTTAGAAT was tested, and the switch fluorescence ratio was 0.971. Sequence TGTTTCCGCG has a switch fluorescence ratio of 1.49. Work on TGTTTGC yielded a switch fluorescence ratio of 1.02. For TGTTTGCCA, the switch fluorescence ratio was 0.966. In the case of TGTTTGTCCT, the switch fluorescence ratio was 1.01. TGTTTTCTTG showed a switch fluorescence ratio of 1. For TGTTTTGGCC, the switch fluorescence ratio was 0.99. Work on TGTTTTTGCC yielded a switch fluorescence ratio of 1.07. TTAAACAATG gave a switch fluorescence ratio of 1.01. In the case of TTAAACATAC, the switch fluorescence ratio was 1.3. TTAAAGCCCC showed a switch fluorescence ratio of 1.11. TTAAAGGAGA gave a switch fluorescence ratio of 1.02. TTAAAGGCAA gave a switch fluorescence ratio of 1.11. With TTAAATGAGG the switch fluorescence ratio was 0.992. Work on TTAAATTGAG yielded a switch fluorescence ratio of 1.01. Sequence TTAACCCGGT has a switch fluorescence ratio of 1.02. With TTAACGAAAA the switch fluorescence ratio was 0.991. With TTAACGTAGC the switch fluorescence ratio was 1.13. TTAACGTGCT was tested, and the switch fluorescence ratio was 1.05. With TTAACTTATA the switch fluorescence ratio was 1.03. In the case of TTAACTTCCG, the switch fluorescence ratio was 1.27. TTAAGAAAGT gave a switch fluorescence ratio of 1.03. For TTAAGAAGCT, the switch fluorescence ratio was 1.01. In the case of TTAAGACGGA, the switch fluorescence ratio was 1.03. TTAAGATGAT gave a switch fluorescence ratio of 1.2. Work on TTAAGATGGA yielded a switch fluorescence ratio of 0.976. For TTAAGCCAG, the switch fluorescence ratio was 0.993. With TTAAGCGTCG the switch fluorescence ratio was 1.07. TTAAGGAAG showed a switch fluorescence ratio of 0.993. With TTAAGGCAGC the switch fluorescence ratio was 1.01. With TTAAGGCTCA the switch fluorescence ratio was 1. TTAAGGGCCT gave a switch fluorescence ratio of 1.01. TTAAGGTCAA was tested, and the switch fluorescence ratio was 0.999. With TTAAGTACTC the switch fluorescence ratio was 1.34. TTAAGTACTG showed a switch fluorescence ratio of 1.4. With TTAAGTCCCA the switch fluorescence ratio was 1.01. In the case of TTAAGTGGCA, the switch fluorescence ratio was 0.994. For TTAATAACAA, the switch fluorescence ratio was 1.03. For TTAATAAGCA, the switch fluorescence ratio was 1.03. Sequence TTAATATGAA has a switch fluorescence ratio of 1.03. TTAATCAGTT was tested, and the switch fluorescence ratio was 1. For TTAATCTCGT, the switch fluorescence ratio was 0.954. Work on TTAATGACGG yielded a switch fluorescence ratio of 1.01. Work on TTAATGTAGG yielded a switch fluorescence ratio of 0.99. With TTAATTGACC the switch fluorescence ratio was 1.05. For TTACAAAAGT, the switch fluorescence ratio was 1.04. Sequence TTACAAAGGG has a switch fluorescence ratio of 0.989. Sequence TTACACGGAT has a switch fluorescence ratio of 1.19. TTACAGCTCA gave a switch fluorescence ratio of 0.983. TTACAGGAAT showed a switch fluorescence ratio of 0.958. TTACAGGC gave a switch fluorescence ratio of 1. TTACAGGCTC was tested, and the switch fluorescence ratio was 1.03. In the case of TTACAGGGTC, the switch fluorescence ratio was 0.974. In the case of TTACAGTTTC, the switch fluorescence ratio was 1.07. TTACATTGAT was tested, and the switch fluorescence ratio was 0.999. TTACCCTCAT showed a switch fluorescence ratio of 1.1. With TTACCGATG the switch fluorescence ratio was 1.05. For TTACCGGACC, the switch fluorescence ratio was 1.34. With TTACCTCCTT the switch fluorescence ratio was 1.1. In the case of TTACGAGCAT, the switch fluorescence ratio was 1.45. TTACGGCGCG showed a switch fluorescence ratio of 0.985. With TTACGGGTCA the switch fluorescence ratio was 1.01. Sequence TTACGGTAGC has a switch fluorescence ratio of 1.03. TTACGTATCT showed a switch fluorescence ratio of 1.22. With TTACGTGAAA the switch fluorescence ratio was 1.01. Work on TTACGTGGCC yielded a switch fluorescence ratio of 1.01. For TTACGTGGGG, the switch fluorescence ratio was 1.03. TTACTATGT was tested, and the switch fluorescence ratio was 1.02. TTACTCTCGG was tested, and the switch fluorescence ratio was 0.998. With TTACTCTGAT the switch fluorescence ratio was 0.953. Work on TTACTGAGGA yielded a switch fluorescence ratio of 0.989. In the case of TTACTGGTTC, the switch fluorescence ratio was 0.986. Sequence TTACTGTGG has a switch fluorescence ratio of 0.991. TTACTGTTTT gave a switch fluorescence ratio of 0.969. Sequence TTACTTCGGC has a switch fluorescence ratio of 0.96. Work on TTAGAAACGA yielded a switch fluorescence ratio of 0.993. TTAGAAAGG was tested, and the switch fluorescence ratio was 1.02. Work on TTAGAACGCA yielded a switch fluorescence ratio of 1.12. Sequence TTAGAACGGT has a switch fluorescence ratio of 1. In the case of TTAGAATTTT, the switch fluorescence ratio was 1.03. With TTAGACAGCA the switch fluorescence ratio was 1.03. In the case of TTAGACCCCC, the switch fluorescence ratio was 1.53. For TTAGACCCG, the switch fluorescence ratio was 1.06. With TTAGACCGTT the switch fluorescence ratio was 0.992. Sequence TTAGACTGGT has a switch fluorescence ratio of 1.02. TTAGAGCTGC showed a switch fluorescence ratio of 1.18. TTAGAGGCT gave a switch fluorescence ratio of 0.993. In the case of TTAGATGCCG, the switch fluorescence ratio was 0.987. For TTAGCCGTC, the switch fluorescence ratio was 1.01. Work on TTAGCCTGCG yielded a switch fluorescence ratio of 1.08. Sequence TTAGCGATGG has a switch fluorescence ratio of 1.19. For TTAGCTAAAG, the switch fluorescence ratio was 1.02. Work on TTAGCTAGTC yielded a switch fluorescence ratio of 0.933. TTAGCTTGGA gave a switch fluorescence ratio of 1.01. With TTAGGAAGAA the switch fluorescence ratio was 0.981. TTAGGACTCT showed a switch fluorescence ratio of 0.972. TTAGGAGAGT gave a switch fluorescence ratio of 0.974. Sequence TTAGGAGTTG has a switch fluorescence ratio of 1.01. TTAGGCAGAG gave a switch fluorescence ratio of 1.08.
